Over roughly 110,000 compounds, “z-score” has its median near -0.1; the highest 2% begin near 2. The list shows a part of the results. Calls of active or inactive are those of the source.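 The calls were made as follows: active = z-score in the third read window above 3 or below -3; inactive = the rest.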

The assay deals with Metabotropic glutamate receptor 8 (Rattus norvegicus) (UniProt P70579). In words: rat mGluR8 modulators via GIRK flux, primary screen, cell-based, thallium flux, HTS (AID 488969). The conditions noted are these: HEK293 rat mGluR8, GIRK (G protein-gated inwardly rectifying potassium channel) thallium flux, FluoZin2; at 10 µM; stronger effect = higher value; submaximal glutamate (EC20) added with thallium.
Sequence of UniProt P70579 (P70579 whole entry, looked up): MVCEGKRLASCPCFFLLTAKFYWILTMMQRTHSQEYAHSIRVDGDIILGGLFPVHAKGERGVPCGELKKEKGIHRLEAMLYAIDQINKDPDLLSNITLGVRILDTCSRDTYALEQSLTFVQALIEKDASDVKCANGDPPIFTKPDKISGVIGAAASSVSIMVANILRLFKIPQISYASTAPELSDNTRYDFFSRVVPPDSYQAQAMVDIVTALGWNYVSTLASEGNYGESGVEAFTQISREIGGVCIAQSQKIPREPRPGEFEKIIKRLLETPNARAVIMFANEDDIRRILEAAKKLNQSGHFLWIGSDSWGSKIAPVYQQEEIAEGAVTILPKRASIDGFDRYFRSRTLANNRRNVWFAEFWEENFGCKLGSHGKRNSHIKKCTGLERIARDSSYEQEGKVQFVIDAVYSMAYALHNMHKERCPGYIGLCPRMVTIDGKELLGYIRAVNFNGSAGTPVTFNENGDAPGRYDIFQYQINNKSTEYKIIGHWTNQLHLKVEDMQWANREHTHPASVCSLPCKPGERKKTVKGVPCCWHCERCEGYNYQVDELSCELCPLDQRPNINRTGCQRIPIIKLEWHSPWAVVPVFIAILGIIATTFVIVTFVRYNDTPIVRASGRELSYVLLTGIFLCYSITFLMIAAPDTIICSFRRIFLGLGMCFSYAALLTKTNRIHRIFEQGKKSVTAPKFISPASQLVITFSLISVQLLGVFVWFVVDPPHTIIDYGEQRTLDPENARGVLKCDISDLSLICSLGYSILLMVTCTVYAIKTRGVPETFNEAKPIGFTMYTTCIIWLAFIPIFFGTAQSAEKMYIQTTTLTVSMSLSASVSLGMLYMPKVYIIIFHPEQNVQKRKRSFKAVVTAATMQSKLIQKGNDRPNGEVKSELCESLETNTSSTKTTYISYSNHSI
On to `O=C1CC(c2ccncc2)c2cc3c(cc2N1)OCO3` (centres undefined), for which the z-score came out at 0.106. For `COc1ccc(CNC(=O)Cc2csc(Nc3nc(=S)[nH]c4ccccc34)n2)cc1` the value was active: 8.83; for `NS(=O)(=O)c1ccc(CNC(=O)NC23CC4CC(CC(C4)C2)C3)cc1`, 0.0645; for `CCOC(=O)N1CCC(NC(=O)c2cc3c(=O)n(C)c4ccccc4c3n2C)CC1`, -0.597. For `CN(C(=O)CSc1nc(-c2ccccc2)cs1)C1CCS(=O)(=O)C1` (centres undefined) the value was 0.052; for `O=C(COc1ccccc1[N+](=O)[O-])N/N=C/c1ccc(OC(=O)c2ccco2)cc1`, -0.205. For `COC(=O)C1C(c2ccccc2)C(C(=O)OCc2ccco2)C1c1ccccc1` (centres undefined) the value was -0.315; for `CC(C)c1nc(SCc2ccccn2)c2c(=O)n(C)c(=O)n(C)c2n1`, -0.406; for `Cc1ccc(Nc2nc(N)nc(CSc3ncccn3)n2)cc1`, -0.0719.

`Cc1ccc(-c2nn(C)c(=O)c3ccccc23)cc1CNC(=O)Cn1nc(-c2ccccc2)c2ccccc2c1=O` came in with a z-score of 0.228. For `COCCn1c(SCC(=O)Nc2cccc(OC)c2)nnc1-c1ccccc1` the value was -0.0116; for `COCCn1c(SC(C)C(=O)Nc2ncc(Cl)cc2Cl)nc2ccccc21` (centres undefined), -0.715. For `COc1ccc(-c2cc(C(F)(F)F)nc(-n3cc(Br)cn3)n2)cc1` the value was 0.00444; for `O=C(Cn1c(-c2ccccc2)noc1=O)Nc1ccc(S(=O)(=O)N2CCOCC2)cc1`, -0.436; for `CCN(CCCNC(=O)C1CCN(S(=O)(=O)c2cnc[nH]2)CC1)c1ccccc1`, 0.524. For `O=C(NCC1CCCO1)c1cccc(F)c1` (centres undefined) the value was 0.371. As to `CCCc1nnc(NC(=O)COC(=O)c2cc(C)nc3ccccc23)s1`, the z-score is -2.17. Consider `Cc1cc(Oc2ccc(Cl)cc2)nc(-c2ccccc2O)n1`, for which the z-score was determined as 0.0564. `FC(F)(F)c1nnc(-c2ccccc2)nc1Sc1ccc(Cl)cc1`: the z-score was -0.153. For `CCc1cc(C)cc(OCCNC(=O)c2cncc(Br)c2)c1` the value was -0.232; for `CCOC(=O)C(C)Oc1ccc(C2NC(=O)NC(C)=C2C(C)=O)cc1Br` (centres undefined), -0.0567; for `CCC(=O)Nc1ccc(NC(=S)NC(=O)Cc2ccccc2)cc1`, -0.137. For `Cc1sc(-n2cccc2)c(C(=O)O)c1C` the value was 0.57. The same measure for `Cc1ccc(N=C/C(C(=O)C(F)(F)F)=C(\O)c2ccco2)cc1Cl`: -0.586; for `O=C(O)CNc1nc(-c2ccccc2)nc2ccccc12`: -0.364; for `Cc1c(N(C)C(=O)c2ccco2)c(=O)n(-c2ccccc2)n1C`: 0.117. On to `COc1ccc(C)cc1S(=O)(=O)Nc1ccc(F)cc1`, for which the z-score was -0.036. For the compound `O=c1c(C=Nc2ccc(Cl)cc2)c[nH]n1-c1cccc(Cl)n1`, the z-score was determined as 0.0943. For `CC1CCN(CC(=O)Nc2ccccc2-c2ccccc2)CC1` the value was 0.156; for `CCCCCOc1ccc(Cn2ccnc2)cc1[N+](=O)[O-]`, -0.465. The same measure for `COC(=O)c1n[nH]c2ccccc12`: -0.241; for `COc1ccc(CC(=O)Nc2c3c(nn2-c2cccc(Cl)c2)CS(=O)(=O)C3)cc1`: -0.191. The same measure for `CCOC(=O)c1ccccc1NC(=O)N1CCn2c(C)ccc2C1CC` (centres undefined): -0.523; for `O=C1C2Sc3[nH]c(=O)sc3C(c3ccccc3)C2C(=O)N1c1ccc(Cl)cc1` (centres undefined): 0.118. For `CCN(CC)CCCNC(=O)C1CCCN(c2nnc(N3CCCC3=O)s2)C1` (centres undefined), the z-score was -0.048. For `O=C(c1cc(-c2ccc(O)cc2)on1)N1CCc2ccccc2C1`, the z-score was -0.857. The same measure for `COc1ccc(NC(=S)N2CCN(c3ccccn3)CC2)cc1`: -0.0875. As for `COc1nc(OCC#N)nc(N(C)C)n1`, the z-score stood at 0.0977. `Cc1ncc([N+](=O)[O-])n1CCOC(=O)NC(NCc1ccccc1)C(Cl)(Cl)Cl` (centres undefined) yielded a z-score of -0.109. For `O=C(COC(=O)Cc1c(Cl)cccc1Cl)Nc1ccc(OC(F)(F)F)cc1` the value was 0.262; for `COC(=O)c1ccccc1NC(=O)c1c(Br)cnn1C`, 0.28. The same measure for `O=c1c2c(-c3cccs3)csc2[nH]c(=S)n1-c1ccccc1`: 1.8; for `C/C(N)=C(/C#N)C(=O)COC(=O)c1ccc(C)c(S(=O)(=O)N2CCCCC2)c1`: -0.308.

Compound `Cc1ccc(S(=O)(=O)N2CCN(C(=O)Cc3ccccc3)CC2)cc1` showed a z-score of -0.0535. For `CCOC(=O)NC(=O)COC(=O)Cc1cc(OC)c(OC)c(OC)c1` the value was -1.05. For `COc1ccc(C(=O)NCCc2nnc(SCC(=O)Nc3ccccc3)n2C)cc1` the value was -0.936; for `O=C(NC(NCC1CCCO1)C(Cl)(Cl)Cl)c1cccc2ccccc12` (centres undefined), -0.0963.

Take `Cc1ccnc(SCC(=O)N2CCN(C(c3ccccc3)c3ccccc3)CC2)n1`: the z-score is -0.763. For `COCc1nnc(NC(=O)CCCCCN2C(=O)c3ccccc3C2=O)s1` the value was -0.344; for `Cc1c(Cl)cccc1NC(=S)NCc1cccn1C`, 0.262; for `CCS(=O)(=O)c1nc(S(=O)(=O)c2ccc(Cl)cc2)c(N2CCc3ccccc3C2)s1`, -0.0847. For the compound `CC1=C(C(=O)Nc2ccc([N+](=O)[O-])cc2)C(c2cccc(C(F)(F)F)c2)NC(=S)N1c1ccccc1` (centres undefined), the z-score came out at 0.425. For `CN(CC(=O)NCc1cccnc1)S(=O)(=O)c1ccc2c(c1)c(=O)n(C)c(=O)n2C` the value was -0.043. The same measure for `CCOc1ccc(N2C(=O)CC(N3CCC(NC(=O)Nc4ccccc4)CC3)C2=O)cc1` (centres undefined): -0.945.

The compound `CCSc1nc2ccccc2n1C(=O)/C=C\c1ccc(OC)c(OC)c1` gave a z-score of -0.365. The same measure for `CC(=O)c1c(C)[nH]c(C(=O)NCc2cccs2)c1C`: 0.148. `COc1ccccc1CNC(=O)CSc1nnc2c(Cl)cc(C(F)(F)F)cn12`: the z-score stood at 1.74. The same measure for `O=S(=O)(N1CCCCC1)N1CCN(c2ccc(F)cc2)CC1`: -0.249; for `COc1ccc(C)cc1Nc1nc(-c2c(C)[nH]c3ccccc23)cs1`: -0.236. The same measure for `CCC(C)C(=O)Nc1nc(-c2ccc3c(c2)NC(=O)CO3)cs1` (centres undefined): -1.04. The same measure for `CCOc1cc(CNCCSc2nnnn2C)cc(Br)c1OCc1ccc(F)cc1`: 0.297.

Regarding `COc1ccc(CN(C(=S)Nc2ccccc2)C2CC(=O)N(c3ccccc3)C2=O)cc1` (centres undefined), the z-score is -0.189. The same measure for `O=C(Nc1ccccc1)Nc1nnc(/C=C/c2ccccc2Cl)s1`: -0.529; for `Cc1ccc(CN2C(=O)CCC2C(=O)NCc2ccc3c(c2)OCO3)cc1` (centres undefined): -0.431. For `Cc1ccc(NC(=O)CN2C(=O)N/C(=C/c3ccc(N4CCOCC4)cc3)C2=O)cc1` the value was -0.234; for `CCOc1cc(C(=S)N2CCOCC2)ccc1OS(=O)(=O)c1ccccc1`, -0.19; for `COc1cc(SC)ccc1C(=O)NCCOc1ccc(Cl)cc1`, -0.243. The same measure for `CCOc1ccc(S(=O)(=O)N(C)c2ccc(OCC(=O)Nc3nc4ccccc4s3)cc2)cc1`: 0.214.

Take `CCn1nnnc1SCC(=O)N1c2ccccc2Sc2ccccc21`: the z-score is -0.251. `Cc1ccc(C(=O)c2cc3ccccc3o2)cc1` had a z-score of -0.0424.

`CCCSc1nnc(CSc2nc3nc(C)cc(C)n3n2)o1` had a z-score of 0.0497. The same measure for `COC(=O)C1C2C=CC(C3CC23)C1C(=O)OCC(=O)c1ccc(OC)cc1` (centres undefined): -0.246; for `OCCN(Cc1ccccc1)Cc1cccc(Cl)c1Cl`: -0.371. For `COc1ccccc1NC(=O)N(c1c(N)n(Cc2ccccc2)c(=O)[nH]c1=O)C1CCCC1` the value was 0.151. The same measure for `O=C(NC(=S)Nc1ccc(Cl)cn1)c1cccs1`: active: 10.3; for `Nc1nc2sc3c(c2cc1C(=O)N1CCOCC1)CCCC3`: -0.115. Turning to `O=c1c(/C=N/O)c(Nc2ccccc2)nc2ccccn12`, the z-score was -0.38.

Consider `COc1ccc(S(=O)(=O)N2CCCC(C(=O)Nc3ccc(OC)c(OC)c3)C2)cc1` (centres undefined), for which the z-score is -0.503. For `Cc1ccc(-c2nc(C#N)c(NCCN3CCCCC3)o2)cc1` the value was 1.04; for `Cc1cc(C(=O)Nc2ccc(N3CCOCC3)cc2)c2ccccc2n1`, -0.331; for `CCOC(=O)N1CCN(C(=O)CSc2nnc(-c3ccccc3OC)o2)CC1`, -0.875. The same measure for `CCCCNCCCCOc1ccccc1`: 0.142; for `COc1cccc(NC(=O)N[C@@H](Cc2ccccc2)C(=O)O)c1`: -0.415.

`Cc1ccccc1NC(=O)Cc1nnc(SCc2ccc(Cl)c(Cl)c2)n1C` showed a z-score of -0.00483. For `CN1CCN(CC(=O)Nc2ccc(Oc3ccccc3)cc2)CC1` the value was 1.4. The same measure for `Nc1sc2c(c1C(=O)c1ccccc1)CCCC2`: -0.0368.

The compound `Cn1c2c(c(=O)n(C)c1=O)C(NC(=O)c1cccs1)(C(F)(F)F)C(=O)N2` (centres undefined) gave a z-score of 1.21. For `CC1CCCCN1CCNC(=O)c1cc2c(=O)n(C)c3ccccc3c2n1C` (centres undefined) the value was 1.88.

In turn, `COC(=O)c1[nH]c2cccc(C)c2c1NC(=O)CN1CCCc2ccccc21` registered a z-score of 0.325.

`CCOc1ccccc1NC(=O)c1ccoc1C` came in with a z-score of -0.211. The same measure for `CCCC(c1nnnn1C1CCCCC1)N1CCN(c2ncccn2)CC1` (centres undefined): -0.271; for `CCSc1nc2sc3c(c2c(=O)n1CC)CC(C)(C)OC3`: -1.33; for `Cc1ccccc1NC(=O)c1cccc(OCc2c(C)noc2C)c1`: -0.269. Turning to `CCOC(=O)c1cccc(NC(=O)C2CCC(CNc3c(N4CCOCC4)c(=O)c3=O)CC2)c1` (centres undefined), the z-score was 0.359.

In turn, `COc1cc(/C=C(\C#N)c2nc3ccc(C)cc3[nH]2)c([N+](=O)[O-])cc1OC` showed a z-score of -0.78. For `COc1cccc(OCCCn2cc(/C=C3/C(=N)N4C=C(C)SC4=NC3=O)c3ccccc32)c1` the value was 0.00229; for `COc1ccccc1Nc1nc(-c2sc(NC(=O)c3ccco3)nc2C)cs1`, -0.263; for `COc1ccc(-c2ncc3ccccn23)cc1`, -0.361. For `COc1cc(C)c(CNc2ccc(OC)c(OC)c2)cc1C` the value was -0.0341; for `C=C(C)CSc1nnc([C@H](CCSC)NC(=O)OC(C)(C)C)o1`, 0.0273; for `CCC1CCCCN1CCCNC(=O)CNC(=O)Cn1ccc2ccccc2c1=O` (centres undefined), -0.263. For `CCNC(=O)NC(=O)C(C)OC(=O)c1cccnc1SC` (centres undefined) the value was -0.0754. Consider `COC(=O)c1nn(-c2ccc(Cl)cc2)c(=O)cc1Sc1ccccn1`, for which the z-score came to 0.0537.

Compound `CC(C)OCCCNC(=O)c1ccc(Br)cc1` displayed a z-score of 0.954. The same measure for `CC(=O)C(Sc1ccc2nnc(-c3ccc(C)cc3)n2n1)C(C)=O`: 1.78; for `COC(=O)c1ccc(NC(=O)C23CCC(C)(C(=O)O2)C3(C)C)cc1` (centres undefined): 2.35. For `NS(=O)(=O)c1ccc(NC(=S)N2CCN(c3ccccc3Cl)CC2)cc1` the value was 0.00418; for `CCC(C)NC(=O)CCCCCn1c(=O)[nH]c2cc(OC)c(OC)cc2c1=O` (centres undefined), -1.26; for `CCS(=O)(=O)c1nc2ccccc2n1CC(=O)N1CCCCC1`, 0.849.

The record behind these values is PubChem BioAssay AID488969 (Vanderbilt High Throughput Screening Facility, 2010).
